Data reported in PubChem BioAssay AID1240 (Sanford-Burnham Center for Chemical Genomics, 2008).
Out of some 50,000 compounds screened, about 800 (1.6%) showed an effect of 50% or more. This is one part of the list.

The compounds below were run against Bcl-2-like protein 10 (Homo sapiens) (UniProt Q9HD36) (assay: TR3 peptide-Bcl-B binding displacers, biochemical primary FP assay, phenotype converters (AID 1240;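 further: 0% = Bcl-B with tracer peptide and DMSO and 100% = tracer peptide lacking Bcl-B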)). Details: GST-Bcl-B / FITC-TR3 peptide fluorescence polarization; stronger effect = higher value; compound at 3.75 mg/L.
UniProt Q9HD36, sequence (Q9HD36 whole entry, looked up): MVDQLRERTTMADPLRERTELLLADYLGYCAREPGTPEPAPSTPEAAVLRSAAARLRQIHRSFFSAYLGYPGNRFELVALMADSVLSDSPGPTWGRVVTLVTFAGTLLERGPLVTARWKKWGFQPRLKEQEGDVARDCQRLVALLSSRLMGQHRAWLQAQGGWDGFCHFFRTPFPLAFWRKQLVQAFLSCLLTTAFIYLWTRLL

SMILES	displacement
C=C(C)Cn1c(-c2ccccc2)n[nH]c1=S	-1.7%
NC(=O)C1=CN(Cc2ccccc2)C=CC1	30.2%
C=CCN1C(=O)C(Cc2ccc(OCC)cc2)SC1=Nc1ccc(C(=O)O)cc1 (stereo not given)	-2.4%
COc1ccc(Cl)cc1NC(=O)c1cc(-c2ccccc2Cl)nc2ccccc12	-2.5%
Cc1ccc(-c2cc(NC(=O)c3ccc(Cl)cc3Cl)n[nH]2)cc1	9.9%
O=C(Cc1ccc([N+](=O)[O-])cc1)Nc1cccc(-c2nc3ccccc3o2)c1	-18.6%
Cc1ccc(N2NC(=O)/C(=C/c3cccc(Br)c3)C2=O)cc1	12.6%
CCOC(=O)CSc1nnc2c3ccccc3n(CC)c2n1	-10.4%
COc1cc(/C=N/NC(=O)CNC(=O)/C=C/c2ccco2)ccc1O	1.2%
COC(=O)C1=CN(Cc2cccs2)C=C(C(=O)OC)C1c1cccs1	2.4%
Cc1cc2nc(-c3ccc(C)c(NC(=O)c4ccco4)c3)oc2cc1C	-5.2%
O=C(N/N=C(/C=C/c1ccccc1[N+](=O)[O-])c1ccccc1)c1ccc(O)cc1	-1.7%
COc1cccc(NC2=CC(=O)CC(c3ccccc3)C2)c1 (stereo not given)	9.3%
CCOC(=O)c1conc1-c1ccc(N(CC)CC)cc1	2.7%
Cc1cccnc1N(C(=O)c1ccccc1F)C(=O)c1ccccc1F	-2.2%
Cc1ccccc1C(=O)Nc1c(C(=O)N2CCN(Cc3ccccc3)CC2)cnn1-c1ccccc1	-11.9%
Cc1cccc(NC(=O)C(=O)NCCC(C)C)c1	7.8%
O=C(O)CCCCCN1C(=O)C(O)=C(C(=O)/C=C/c2ccccc2)C1c1ccc2c(c1)OCO2 (stereo not given)	-2.6%
CCC1(C)CC(CC(=O)O)(c2ccc(C)cc2)CCO1 (stereo not given)	-0.2%
CCOC(=O)C1=C(C)NC(=O)NC1c1cc([N+](=O)[O-])ccc1OC (stereo not given)	-1.6%
Cc1nc2ccccc2nc1-c1ccc([N+](=O)[O-])cc1	18.9%
Cc1ccc(NC(=O)C(=O)NCCCO)cc1	13.2%
CN(C)c1nc(N(C)C)nc(N2CC(=O)N(c3ccccc3)C2=N)n1	5.1%
O=C1C2C(c3ccccc3)C=CC(c3ccccc3)C2C(=O)N1c1ccc2c(c1)oc1ccccc12 (stereo not given)	-13.5%
COc1ccccc1C1C(C(C)=O)=C(O)C(=O)N1CC1CCCO1 (stereo not given)	-4.6%
O=C1c2ccccc2C2(O)OC(c3ccccc3)=C(c3nc4ccccc4s3)C12O (stereo not given)	7.9%
COc1ccc(C(=O)Nc2ccc(N(C)C(C)=O)cc2)cc1	-10.8%
CCOC(=O)c1c(NC(=O)c2cc3ccccc3o2)sc2c1CCC(C)C2 (stereo not given)	-4.7%
CC(C)OC(=O)c1ccc(NC(=O)c2cccc(Br)c2)cc1	69.2%
Cc1ccc(C(=O)Nc2cccc([N+](=O)[O-])c2C)cc1C	6.8%
